In all, about 33,000 sequences were measured (“E-score (-0.5 to 0.5)”: median about -0.032, highest 2% from about 0.36 on). The list shows a part of the results.

The target of the test is T1, Sko1 (UniProt Q02100).
T1 sequence: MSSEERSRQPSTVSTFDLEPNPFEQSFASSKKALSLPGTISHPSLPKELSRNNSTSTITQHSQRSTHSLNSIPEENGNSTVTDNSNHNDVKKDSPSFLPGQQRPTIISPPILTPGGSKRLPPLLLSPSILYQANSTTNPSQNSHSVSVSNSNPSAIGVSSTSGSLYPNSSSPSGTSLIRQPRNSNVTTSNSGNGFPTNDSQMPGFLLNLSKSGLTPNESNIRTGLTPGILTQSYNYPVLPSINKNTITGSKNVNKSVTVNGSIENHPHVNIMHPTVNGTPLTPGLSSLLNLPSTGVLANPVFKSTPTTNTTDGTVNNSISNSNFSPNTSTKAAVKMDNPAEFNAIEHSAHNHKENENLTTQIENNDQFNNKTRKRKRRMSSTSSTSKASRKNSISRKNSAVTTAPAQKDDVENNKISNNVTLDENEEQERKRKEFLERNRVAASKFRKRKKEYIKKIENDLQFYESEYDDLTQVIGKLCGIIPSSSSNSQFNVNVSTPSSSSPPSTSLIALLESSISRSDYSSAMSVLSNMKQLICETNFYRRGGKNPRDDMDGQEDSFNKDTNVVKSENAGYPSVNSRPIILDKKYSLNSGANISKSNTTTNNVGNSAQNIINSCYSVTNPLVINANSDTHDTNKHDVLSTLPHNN
Nature of the test: PBM E-score (8-mer binding enrichment) (E-score (-0.5 to 0.5)); higher = stronger / more preferred TF binding; most listed sequences are background and not binding sites. The settings on record: protein concentration: 200 nM; construct: GST-full length. Here is the method:
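Universal 'all 10-mer' protein binding microarrays (Agilent AMADID 015681) probed with GST-tagged S. cerevisiae TFs (full-length or DBD) made by in vitro transcription/translation (PURExpress), about 100-200 nM. Bound TF was detected with fluorescent anti-GST. Each ungapped 8-mer (which stands for itself and its reverse complement) is scored by the PBM enrichment score (E-score), a modified Wilcoxon-Mann-Whitney statistic from -0.5 to +0.5, computed with the Universal PBM Analysis Suite. Scale: above 0.35 generally sequence-specific binding.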
In the case of AGACATAC, the “PBM E-score” value stood at 0.135. To AGAGGCAT belongs -0.0275; to CCAGCAAC, 0.041. As to CGGATTTA, the “PBM E-score” value was -0.0418. Next, AGTGTGAA: 0.0125; AGCGTCCG: -0.0937; GAATGTTA: -0.0561.

On to ATGCATCG, for which the “PBM E-score” value amounted to 0.0283. Next, AAAGAGAC: 0.0001. Next, ACGGCGAC: -0.0729; AATTTAGG: 0.234; AAGCATAA: 0.172.

With ACTCCGGC, the “PBM E-score” value was found to be 0.0335. To GATGCTAA belongs -0.00505.

Regarding ATCGTAGC, the “PBM E-score” value is 0.2. To GACAACTA belongs 0.132; to AGCTAGAC, -0.0286.

Consider ACGAGCCT, for which the “PBM E-score” value was -0.11.

On to ACCAGCAA, for which the “PBM E-score” value was -0.107. Next, CTACCCTC: -0.192; GCCCTCGA: -0.152. To CGTAGGCC belongs 0.149. Next, AGCGTATC: -0.0128; GATTGGCA: -0.0176. TCAATCCA: the “PBM E-score” value was determined as 0.0285. To GCACCCAA belongs -0.211; to CTAAGCAG, -0.21; to ATGGGTTG, -0.0519. Next, GTCATGTA: 0.255. To GCGATCAA belongs -0.00541. On to ATGAGATA, for which the “PBM E-score” value stood at 0.161. To CCGGTCCG belongs -0.31; to CCCGTCTC, -0.256; to TCCGAGGA, -0.19. In the case of GGACTTAC, the “PBM E-score” value is -0.0203. Next, CTAGTCGC: -0.327; CAGGAACA: 0.00796; CTAGACAA: -0.00983. Regarding AGGGGGGC, the “PBM E-score” value was -0.328. For the sequence GACGTGAA, the “PBM E-score” value was found to be 0.358. Next, GAAGCGGC: -0.279. To AACTAGCC belongs -0.17; to ACAGCAAG, 0.0393; to ACGGCCCC, -0.251. In the case of ATTTACAA, the “PBM E-score” value turned out to be 0.209. Next, TCCGTCAA: 0.0302; ATAACTTG: 0.00977. Next, AATTTCAG: 0.0849; AATAACCG: 0.019.

Consider CCTTGCCC, for which the “PBM E-score” value is -0.231.

For AAAACTTA, the “PBM E-score” value amounted to 0.159. Consider AGCCAAGG, for which the “PBM E-score” value was -0.135.

In the case of TACATATA, the “PBM E-score” value came out at 0.253.

For the sequence TCACAGGA, the “PBM E-score” value was found to be 0.00446.

As to CCATCTTC, the “PBM E-score” value is 0.072.

In the case of TGTTGTAA, the “PBM E-score” value was determined as 0.198. As for AGACTAGA, the “PBM E-score” value is -0.152. To GGTCCGAA belongs -0.0412. To ACACCAAC belongs -0.0153. To GCGGAACC belongs -0.28. For the sequence ACGCTACA, the “PBM E-score” value was 0.0785.

Regarding CAACGTGA, the “PBM E-score” value is 0.182. Next, ATGATGCG: 0.31; CCCGAGTC: -0.18.

On to CCGCGCCG, for which the “PBM E-score” value is -0.269.

For the sequence AATCCTTC, the “PBM E-score” value is -0.151.

On to CACACCAC, for which the “PBM E-score” value was determined as 0.12. TACGTTCA: the “PBM E-score” value stood at 0.374.

Regarding AAACTGCG, the “PBM E-score” value was -0.0403. Next, ATGCGCGG: -0.0905.

Regarding GTTTGTTA, the “PBM E-score” value worked out at 0.206. Next, ATTGATCG: 0.0452.

As to ATGGCAGA, the “PBM E-score” value was -0.00965. To CACGTACG belongs 0.406. To AGACGGTC belongs -0.12; to TGAGAGAA, 0.125. Next, GTCACAGA: 0.234; ATAGCGAA: 0.221; CCCTCTAA: -0.193. For CAACTCGC, the “PBM E-score” value was found to be 0.0082. To ACCTAGAT belongs -0.00297; to CGTCCGTA, 0.193. To CTTGTCCA belongs -0.149. CAACAATC: the “PBM E-score” value stood at 0.149. Next, TAGGCCGA: -0.218; CTTATTTA: 0.00976.

These data come from the supplement of paper PMC3334620.
